# Test results taken from PubChem BioAssay AID504845 (National Center for Advancing Translational Sciences (NCATS), 2011).
# The campaign covered roughly 390,000 compounds. About 150 (0.038%) were called active. Inconclusive results, whose numbers are uncertain, are shown with a selection of clear calls. The call rests on the fitted dose curve; in most records, active means well fitted inhibition curve with a large enough effect; inconclusive means small, poorly fitted or top-dose-only effect; inactive means no such curve, though single readings can be large or run the other way. Potencies of inconclusive entries are doubtful fits and often do not repeat.
# Molecular target: Regulator of G-protein signaling 4 (Homo sapiens) (UniProt P49798)
# Assay: Inhibitors of Regulator of G Protein Signaling (RGS) 4: qHTS; further: nearly all actives have a fitted effect of over 75% in size
# Settings: Transcreener GDP fluorescence polarization, RGS4-accelerated GTP hydrolysis; series mostly up to 114 µM
# Outline: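 MLSMR compounds (23 nl, pin-transferred) preincubated 10 min at room temperature with a 500nM (2x) first reagent, then RGS4 at 900nM (2x) plus Transcreener GDP mix added; fluorescence polarization (620/688 nm) read before and after 90 min at 30 °C.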
# Potency means the concentration at half of the fitted maximal effect; tags describe the fitted curve by direction and shape.
# UniProt P49798, sequence (P49798 whole entry, looked up): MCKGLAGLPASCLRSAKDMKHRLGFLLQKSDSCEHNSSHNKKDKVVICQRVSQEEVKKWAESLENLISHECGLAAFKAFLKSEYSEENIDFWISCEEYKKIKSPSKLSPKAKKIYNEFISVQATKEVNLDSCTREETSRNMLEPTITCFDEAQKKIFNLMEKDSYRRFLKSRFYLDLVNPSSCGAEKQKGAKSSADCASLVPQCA
row,SMILES,Potency
1,Cc1cc(C)n(-c2nc(Nc3ccccc3)nc(-n3nc(C)cc3C)n2)n1,inactive
2,Cc1ccc(-c2nc3ccccc3[nH]2)cc1NC(=O)c1sc2cc(Cl)ccc2c1Cl,"inconclusive: 50.1 µM [inhibitor, partial curve, poor fit]"
3,O=S(=O)(c1ccc2c(c1)CCC2)N1CCN(c2nc(-c3ccccc3)nc3ccccc23)CC1,inactive
4,COc1cccc(C2CC(=O)Nc3c2c(=O)n(C)c2nc4ccccc4n32)c1 (stereo not drawn),inactive
5,O=C(COC(=O)c1ccccc1Br)NCCC1=CCCCC1,inactive
6,O=C(CSc1ccc(Cl)cc1)Nc1cccc(-c2nc3ccccc3[nH]2)c1,"inconclusive: 31.6 µM [inhibitor, full curve, poor fit]"
7,CCOC(=O)c1c(NC(=O)c2ccc(Cl)cc2)csc1C,inactive
8,O=C1c2ccccc2C2(c3cc(C(F)(F)F)cc(C(F)(F)F)c3)NCCN12 (stereo not drawn),inactive
9,O=C1/C(=C/Nc2ccc3c(c2)OCO3)CCc2ccccc21,"inconclusive: 50.1 µM [inhibitor, partial curve, poor fit]"
10,O=[N+]([O-])c1ccc(OCCOc2ccccc2/C=N/n2cnnc2)cc1,"inconclusive: 70.8 µM [inhibitor, partial curve, poor fit]"
11,Cc1[nH]nc2nc(SCC(=O)NCC3CCCO3)n(-c3ccc(Br)cc3)c(=N)c12 (stereo not drawn),inactive
12,CCOC(=O)C1CCN(C(=O)COC(=O)C2CCN(S(=O)(=O)c3ccc4c(c3)OCCO4)CC2)CC1,"inconclusive: 89.1 µM [inhibitor, single point]"
13,O=C(c1ccccc1)c1ccccn1,inactive
14,Cc1cc2cc(CNC(=O)Nc3ccc(Cl)c(Cl)c3)ccc2n1C,inactive
15,COc1ccc(NC2CCCN(C(=O)C3(C)CCCCC3)C2)cc1OC (stereo not drawn),"inconclusive: 89.1 µM [inhibitor, single point]"
16,O=C(N/N=C/c1sc(=O)[nH]c1-[n+]1ccc2ccccc2c1)c1ccccc1[O-],"inconclusive: 50.1 µM [inhibitor, partial curve, poor fit]"
17,O=C(c1cccc(NS(=O)(=O)c2ccc(Br)cc2)c1)N1CCN(c2ccccc2O)CC1,"inconclusive: 79.4 µM [inhibitor, partial curve, poor fit]"
18,CC(C)(C)OC(=O)N(Cc1ccccc1)Cc1ccccc1OCc1cccc(NC(=O)c2ccccc2)c1,"inconclusive: 89.1 µM [inhibitor, single point]"
19,Cn1c(=O)cc(N2CCN(C(=O)c3ccco3)CC2)[nH]c1=O,"inconclusive: 28.2 µM [inhibitor, full curve, poor fit]"
20,O=C(CCN1CCc2ccccc2CC1)c1ccc2c(c1)OCCO2,"inconclusive: 89.1 µM [inhibitor, partial curve, poor fit]"
21,N#CC(C#N)=c1ccc2c(c1)NC1(CCCCC1)N=2,"inconclusive: 28.2 µM [inhibitor, full curve, poor fit]"
22,Cc1[nH][nH]c(=O)c1C(c1ccc(-c2ccc(Cl)cc2)o1)c1c(C)[nH][nH]c1=O,"inconclusive: 50.1 µM [inhibitor, partial curve, poor fit]"

row,SMILES,Potency
1,COc1cc(C(=O)N/N=C/c2coc3ccccc3c2=O)cc(OC)c1OC,inactive
2,COc1cccc(CNC(=O)c2c(O)nc3ccccn3c2=O)c1,inactive
3,O=C(C1CC1)N1CCc2cc(S(=O)(=O)N3CCCc4ccccc43)ccc21,"inconclusive: 100 µM [inhibitor, single point]"
4,CC(=O)Oc1ccc2nc(/C=C/c3ccccc3)oc(=O)c2c1,inactive
5,Cc1ccc2c(c1)C(=O)CCN2,inactive
6,Cc1ccc(S(=O)(=O)NNC(=S)Nc2c(Cl)cccc2Cl)cc1,"inconclusive: 89.1 µM [inhibitor, single point]"
7,O=C(Nc1ccccc1-c1ccccc1)c1cccs1,"inconclusive: 28.2 µM [inhibitor, full curve, poor fit]"
8,CC(C)n1c(=S)[nH]c2c1c(=O)[nH]c(=O)n2C,"inconclusive: 17.8 µM [inhibitor, full curve, poor fit]"
9,CC1(C)OC(=O)C(=Cc2ccc(-c3ccc(S(N)(=O)=O)cc3)o2)C(=O)O1,"inconclusive: 31.6 µM [inhibitor, full curve, poor fit]"
10,CC(=O)c1ccc(NC(=O)CCc2c(C)nn(-c3ccc4nncn4n3)c2C)cc1,inactive
11,COC(=O)c1ccc(NC(=O)c2nc(S(=O)(=O)Cc3cccc(C)c3)ncc2Cl)cc1,"inconclusive: 70.8 µM [inhibitor, partial curve, poor fit]"
12,CCc1nnc(NS(=O)(=O)c2ccc(NC(=S)NC(=O)c3ccc(Br)cc3)cc2)s1,"inconclusive: 79.4 µM [inhibitor, partial curve, poor fit]"
13,Cc1ccccc1C(=O)Nc1nnc(SCc2cc(=O)c3c(C)ccc(C)c3[nH]2)s1,inactive
14,O=C(Cc1cccc(NC(=O)C2CCCN(C(=O)C3CC3)C2)c1)Nc1ccc(C(=O)N2CCCCC2)cc1 (stereo not drawn),inactive
15,O=S(=O)(NC1=NCCCCC1)c1ccc2sc(NS(=O)(=O)c3ccc4ccccc4c3)nc2c1,"inconclusive: 44.7 µM [inhibitor, partial curve, poor fit]"
16,N/C(=N\NC(=O)c1ccccc1)c1cc2ccccc2oc1=O,"inconclusive: 28.2 µM [inhibitor, full curve, poor fit]"
17,COc1ccc(C2NC(=O)C(C#N)=C(S)N2c2ccc(C)cc2)cc1OC (stereo not drawn),inactive
18,Cc1nc2ccc3nc(NC(=O)c4ccc5c(c4)OCCO5)sc3c2s1,"inconclusive: 10 µM [inhibitor, full curve, poor fit]"
19,Cc1cc(NC(=S)N(Cc2ccc(Br)cc2)Cc2ccc(C(=O)O)cc2)ccc1Cl,"inconclusive: 89.1 µM [inhibitor, partial curve, poor fit]"
20,C#CCn1cc(/C=N/NC(=O)COc2cccc3cccnc23)c2ccccc21,"inconclusive: 50.1 µM [inhibitor, partial curve, poor fit]"
21,O=C(N/N=C/c1ccccc1O)c1cccc(C(F)(F)F)c1,"inconclusive: 17.8 µM [inhibitor, full curve, poor fit]"
